The structures appear in SMILES notation. This is one part of the list. Many values rest on one well or one pass, so single values are uncertain.
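Also: cell number obtained by counting DAPI-stained nuclei in high-throughput microscope images with image analysis software, screen run in 1,536-well plates.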

In the experiment the test system is SkMel28. Kind of experiment: cell count relative to DMSO control; melanoma cells; higher = more viable cells. Conditions: library dose: low library concentration; 72 h.
With `CC(C)C[C@H](NC(=O)[C@H](Cc1ccccc1)NC(=O)c1cnccn1)B(O)O` [Bortezomib] + O=C(Oc1ccc([N+](=O)[O-])cc1)N1CCC(C(O)(c2ccc3c(c2)OCO3)c2ccc3c(c2)OCO3)CC1 [JZL184] (first compound 0.001 µM, partner dose 1 µM), the cell count was 79.5%. In the case of `c1cc(-c2cnn3cc(-c4ccc(OCCN5CCCCC5)cc4)cnc23)ccn1` [Dorsomorphin] + O=C(Oc1ccc([N+](=O)[O-])cc1)N1CCC(C(O)(c2ccc3c(c2)OCO3)c2ccc3c(c2)OCO3)CC1 [JZL184] (first compound 0.4 µM, partner dose 1 µM), the cell count turned out to be 96.5%. `Oc1cc(-c2nc(-c3ccccc3)[nH]c2-c2ccncc2)ccc1Cl` + O=C(Oc1ccc([N+](=O)[O-])cc1)N1CCC(C(O)(c2ccc3c(c2)OCO3)c2ccc3c(c2)OCO3)CC1 [JZL184] (first compound 0.2 µM, partner dose 1 µM): the cell count came to 69.7%. In turn, `Nc1ccn([C@@H]2O[C@H](CO)[C@@H](O)C2(F)F)c(=O)n1` [gemcitabine] + C/C(O)=C(\C#N)C(=O)Nc1cc(Br)ccc1Br [LFM-A13] (first compound 0.0004 µM, partner dose 2 µM) gave a cell count of 95%.

As to `CC(C)C[C@H](NC(=O)[C@H](Cc1ccccc1)NC(=O)c1cnccn1)B(O)O` [Bortezomib] + C/C(O)=C(\C#N)C(=O)Nc1cc(Br)ccc1Br [LFM-A13] (first compound 0.001 µM, partner dose 2 µM), the cell count stood at 80%. The result for `CO[C@H]1C[C@@H]2CC[C@@H](C)[C@@](O)(O2)C(=O)C(=O)N2CCCC[C@H]2C(=O)O[C@H]([C@H](C)C[C@@H]2CC[C@@H](OCCO)[C@H](OC)C2)CC(=O)[C@H](C)/C=C(\C)[C@@H](O)[C@@H](OC)C(=O)[C@H](C)C[C@H](C)/C=C/C=C/C=C/1C` [everolimus] + Cc1cc(SCc2sc(-c3ccc(C(F)(F)F)c(F)c3)nc2C)ccc1OCC(=O)O [GW0742] (first compound 0.02 µM, partner dose 2 µM) reads 101%; that for `Nc1ccn([C@@H]2O[C@H](CO)[C@@H](O)C2(F)F)c(=O)n1` [gemcitabine] + O=C(Oc1ccc([N+](=O)[O-])cc1)N1CCC(C(O)(c2ccc3c(c2)OCO3)c2ccc3c(c2)OCO3)CC1 [JZL184] (first compound 0.0004 µM, partner dose 1 µM), 85.3%. Next, `Cc1nc(Nc2ncc(C(=O)Nc3c(C)cccc3Cl)s2)cc(N2CCN(CCO)CC2)n1` [dasatanib] + Cc1cc(SCc2sc(-c3ccc(C(F)(F)F)c(F)c3)nc2C)ccc1OCC(=O)O [GW0742] (first compound 0.004 µM, partner dose 2 µM): 74.2%. Compound `COCC[n+]1c2c(n(Cc3cnccn3)c1C)C(=O)c1ccccc1C2=O` + Cc1cc(SCc2sc(-c3ccc(C(F)(F)F)c(F)c3)nc2C)ccc1OCC(=O)O [GW0742] (first compound 0.0004 µM, partner dose 2 µM) yielded a cell count of 99.4%. The compound `Cc1cc(Nc2cc(N3CCN(C)CC3)nc(Sc3ccc(NC(=O)C4CC4)cc3)n2)n[nH]1` [Tozasertib] + C/C(O)=C(\C#N)C(=O)Nc1cc(Br)ccc1Br [LFM-A13] (first compound 0.006 µM, partner dose 2 µM) returned a cell count of 75.7%. Next, `Cc1cc(Nc2cc(N3CCN(C)CC3)nc(Sc3ccc(NC(=O)C4CC4)cc3)n2)n[nH]1` [Tozasertib] + C[As](C)SC[C@H](NC(=O)CC[C@H](N)C(=O)O)C(=O)NCC(=O)O [Darinaparsin] (first compound 0.006 µM, partner dose 0.4 µM): 88.1%; `COc1ccc(COc2ccc(Cc3cnc(N)nc3N)cc2OC)cc1` + C/C(O)=C(\C#N)C(=O)Nc1cc(Br)ccc1Br [LFM-A13] (first compound 1 µM, partner dose 2 µM): 86.3%; `O=C(O)c1ccc2c(c1)nc(Nc1cccc(Cl)c1)c1ccncc12` + O=C(Oc1ccc([N+](=O)[O-])cc1)N1CCC(C(O)(c2ccc3c(c2)OCO3)c2ccc3c(c2)OCO3)CC1 [JZL184] (first compound 0.4 µM, partner dose 1 µM): 102%. `COc1ccc(COc2ccc(Cc3cnc(N)nc3N)cc2OC)cc1` + Cc1cc(SCc2sc(-c3ccc(C(F)(F)F)c(F)c3)nc2C)ccc1OCC(=O)O [GW0742] (first compound 1 µM, partner dose 2 µM) gave a cell count of 102%.

Take `Clc1ccc(Nc2nnc(Cc3ccncc3)c3ccccc23)cc1` [vatalanib] + C[As](C)SC[C@H](NC(=O)CC[C@H](N)C(=O)O)C(=O)NCC(=O)O [Darinaparsin] (first compound 2 µM, partner dose 0.4 µM): the cell count is 85.1%. Take `CC(C)C[C@H](NC(=O)[C@H](Cc1ccccc1)NC(=O)c1cnccn1)B(O)O` [Bortezomib] + N.N.[Cl][Pt][Cl] [cisplatin] (first compound 0.001 µM, partner dose 1.6 µM): the cell count was found to be 105%.
